Measured values from PubChem BioAssay (NCATS).
Inconclusive results, whose numbers are uncertain, are shown with a selection of clear calls. For some of these results: Potencies of inconclusive entries are doubtful fits and often do not repeat. The source made the active and inactive calls. Unless noted, calls follow the shape of the dose curve; as a rule, active = well fitted curve in the direction sought with a large enough effect; inconclusive = small, poorly fitted or top-dose-only effect, or another doubt; inactive = no such curve, though single readings can be large; an effect the other way counts as inactive or inconclusive.

Legend:
[1] = target: Cytochrome P450 2D6 (Homo sapiens) (UniProt P10635); assay: Cytochrome P450 family 2 subfamily D member 6 (CYP2D6) small molecule antagonists: luciferase biochemical (cell-free) qHTS assay (AID 1645840; active = well fitted curve in the direction sought with a large enough effect in the repeat runs; inconclusive = weak or mixed curves; inactive = no such curve, though single readings can be large; an effect the other way counts as inactive or inconclusive; also: potency is read from the fitted curve at half-maximal effect; nearly all actives have a fitted effect of over 55% in size)
Method in brief: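 P450-Glo CYP2D6 system: proluciferin substrate converted by enzyme to luciferin, read by luminescence proportional to activity. Enzyme-substrate mix with compound 10 min at room temperature, then NADPH regeneration 1 h before detection reagent.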

[2] = target: Cytochrome P450 2C9 (Homo sapiens) (UniProt P11712); assay: Cytochrome P450 family 2 subfamily C member 9 (CYP2C9) small molecule antagonists: luciferase biochemical (cell-free) qHTS assay (AID 1645842; active = well fitted curve in the direction sought with a large enough effect in the repeat runs; inconclusive = weak or mixed curves; inactive = no such curve, though single readings can be large; an effect the other way counts as inactive or inconclusive; also: potency is read from the fitted curve at half-maximal effect; nearly all actives have a fitted effect of over 55% in size)
Method in brief: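 P450-Glo CYP2C9 system: proluciferin substrate with enzyme in mix containing 0.4% BSA, 10 min at room temperature, then NADPH regeneration solution added and incubated 1 h at 37C. Detection reagent stopped reaction; luminescence read after 20 min as RLU.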

HaCat = assay: Cytotoxic Profiling of Annotated Libraries Using Quantitative High-Throughput Screening (AID 1296008); details: Five cell lines viability, CellTiter-Glo ATP luminescence, 48-72 h; max response: stronger effect = lower value; also: nearly all actives have a fitted effect of over 60% in size
Method in brief: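 Cells exposed to compounds for 48 or 72 hr at 37 degrees Celsius. Viability read as ATP-coupled luminescence with CellTiter-Glo after 10 min at room temperature.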

Tov-21-G = assay: Primary qHTS to identify gynecologic anti-cancer compounds using libraries of approved drugs and bioactive compounds (AID 1345084); details: Gynecologic cancer cell panel viability, ATPlite luminescence, 48 h; series mostly up to 57.5 µM; also: % is scaled to controls: 0 for no effect and ±100 for the full control effect; nearly all actives have a fitted effect of over 55% in size
Method in brief: (§1)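 Cells, 1,000 per well, plated 16 h, then exposed 48 h at 37 C to compounds. Viability by ATPlite luminescence after 15 min at room temperature.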

[3] = P-glycoprotein substrates identified in KB-8-5-11 adenocarcinoma cell line, qHTS therapeutic library screen (AID 1346987); details: activity change, negative = cytotoxicity: at 44.5 µM (top of the series); also: nearly all actives have a fitted effect of over 65% in size
Method in brief: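 Luminescence from CellTiter-Glo, read 5 min after addition, quantified survival of KB-8-5-11 (P-gp-overexpressing) cells exposed to compounds for 72 h. AC50 was derived from concentration-response curves.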

[4] = Primary qHTS for inhibitors of nuclear receptor binding SET domain protein 2 (NSD2) in an isogenic RCH-ACV NSD2 p.E1099K mutant (9B) (AID 1645876); details: activity change, negative = viability loss: at 44.9 µM (top of the series) unless noted; also: % is scaled to controls: 0 for no effect and ±100 for the full control effect; nearly all actives have a fitted effect of over 70% in size
[5] = Primary redox qHTS assay for identification of artifact compounds. (AID 1845223); also: potency is read from the fitted curve at half-maximal effect
Method in brief: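 Redox-cycling detection via DTT (250 uM final) oxidation coupled to Amplex Red (25 uM)/HRP (250 mU/mL) in HBSS. 15 min preincubation plus 30 min after DTT, room temperature. Ex/Em 525/598 nm; 4-parameter Hill fit against DMSO and 10 uM DA3003.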

HEK293T = assay: qHTS assay to identify novel small-molecules to repurpose for Merkel cell carcinoma treatment (AID 1296009); details: MCC and control cell lines, CellTiter-Glo viability, 72 h; at 9.27 µM (top of the series) unless noted; also: nearly all actives have a fitted effect of over 60% in size
Method in brief: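 Dose-response viability screen; 72 hr exposure at 37 degree celsius; CellTiter-Glo added, 10 min room temperature, luminescence read; RLUs scaled between no-cell and DMSO wells.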

CAOV3 = assay: Primary qHTS to identify gynecologic anti-cancer compounds using libraries of approved drugs and bioactive compounds (AID 1345084); details: Gynecologic cancer cell panel viability, ATPlite luminescence, 48 h; series mostly up to 57.5 µM; also: % is scaled to controls: 0 for no effect and ±100 for the full control effect; nearly all actives have a fitted effect of over 55% in size
Method in brief: as §1

CASKI = assay: as above; details: Gynecologic cancer cell panel viability, ATPlite luminescence, 48 h; series mostly up to 57.5 µM
Method in brief: as §1

SKOV3 = assay: as above; details: Gynecologic cancer cell panel viability, ATPlite luminescence, 48 h; series mostly up to 57.5 µM
Method in brief: as §1

[6] = target: Phospholipid hydroperoxide glutathione peroxidase GPX4 (Homo sapiens) (UniProt P36969); assay: Primary qHTS Assay for Inhibitors of Recombinant Selenoprotein Glutathione Peroxidase 4 (GPX4) (AID 1845192); details: activity change, negative = inhibition: at 50 µM (top of the series) unless noted; also: nearly all actives have a fitted effect of over 65% in size
Method in brief: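 Steps: GPX4 plus compound, 30 min RT; add GR/GSH/NADPH master mix; start with cumene hydroperoxide; read 340/450 nm fluorescence at 0 and 15 min. Finals were 200 nM GPX4, 1 mM GSH, 0.5 mM CHP, 0.5 mM NADPH, 100 nM GR.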

[7] = target: Luciferin 4-monooxygenase (Photinus pyralis) (UniProt P08659); assay: Biochemical firefly luciferase enzyme assay for NPC (AID 624030);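 also: purified P. pyralis luciferase at 10 nM with luciferin and ATP substrate; 0% = DMSO and -100% = full luciferase inhibition by PTC124 control; nearly all actives have a fitted effect of over 70% in size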
Method in brief: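 Purified P. pyralis luciferase at 10 nM in 50 mM Tris Acetate (final), luminescence read within 5 minutes of enzyme addition to compounds. Activity normalised to PTC124 versus DMSO; concentration-response curves classed by r2, magnitude and activity.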

[8] = tested on: Zika virus NS2B-NS3 protease (unlinked complex); assay: Primary screen GU Rhodamine qHTS for Zika virus inhibitors: Unlinked NS2B-NS3 protease assay (AID 1347159); details: Recombinant ZIKV NS2B-NS3 protease, Rhodamine110 substrate fluorescence; activity change, negative = inhibition: at 107 µM (top of the series); also: % is scaled to controls: 0 for no effect and ±100 for the full control effect; nearly all actives have a fitted effect of over 60% in size
Method in brief: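 Enzyme 25 nM in Tris-HCl pH 8.0 + 0.01% Tween 20; compounds up to 114 microM, 15 min RT dark; + Rhod110 substrate 1.5 microM; read t0 and 15 min; delta fluorescence → % inhibition → 4-parameter Hill fit.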

[9] = Primary fluorescence-based thiol-reactive (MSTI) qHTS assay for identification of artifact compounds. (AID 1845221);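 also: potency is read from the fitted curve at half-maximal effect; thiol-reactive compounds lower the probe fluorescence signal; nearly all actives have a fitted effect of over 65% in size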
Method in brief: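 MSTI probe at 4 uM final in 2% DMSO/PBS pH 7.4; compounds, 1 h at room temperature in dark. Fluorescence Ex/Em 525/598 nm, normalised to Acetyl-MSTI and MSTI, fitted to 4-parameter Hill.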

AS120 = assay: qHTS profiling for inhibitors of Plasmodium falciparum proliferation (AID 504749);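 also: 0% = DMSO vehicle and full inhibition = artemisinin control; nearly all actives have a fitted effect of over 60% in size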; details: P. falciparum in erythrocytes, SYBR Green DNA, 72 h; series mostly up to 28.7 µM
Method in brief: (§2)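 Each compound contacts P. falciparum-infected red blood cells for 72 h at 37 C; lysis buffer (Tris, EDTA, saponin, Triton X, SYBR Green I) is added and fluorescence measured next morning; values normalized to controls.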

ATS189 = assay: as above; details: P. falciparum in erythrocytes, SYBR Green DNA, 72 h; series mostly up to 28.7 µM
Method in brief: as §2

CP194 = assay: as above; details: P. falciparum in erythrocytes, SYBR Green DNA, 72 h; series mostly up to 28.7 µM
Method in brief: as §2

CP203 = assay: as above; details: P. falciparum in erythrocytes, SYBR Green DNA, 72 h; series mostly up to 28.7 µM
Method in brief: as §2

CP252 = assay: as above; details: P. falciparum in erythrocytes, SYBR Green DNA, 72 h; series mostly up to 28.7 µM
Method in brief: as §2

CP305 = assay: as above; details: P. falciparum in erythrocytes, SYBR Green DNA, 72 h; series mostly up to 28.7 µM
Method in brief: as §2

CP329 = assay: as above; details: P. falciparum in erythrocytes, SYBR Green DNA, 72 h; series mostly up to 28.7 µM
Method in brief: as §2
Tags tell the direction and shape of the fitted curve.

Sequence of UniProt P08659 (P08659 whole entry, looked up): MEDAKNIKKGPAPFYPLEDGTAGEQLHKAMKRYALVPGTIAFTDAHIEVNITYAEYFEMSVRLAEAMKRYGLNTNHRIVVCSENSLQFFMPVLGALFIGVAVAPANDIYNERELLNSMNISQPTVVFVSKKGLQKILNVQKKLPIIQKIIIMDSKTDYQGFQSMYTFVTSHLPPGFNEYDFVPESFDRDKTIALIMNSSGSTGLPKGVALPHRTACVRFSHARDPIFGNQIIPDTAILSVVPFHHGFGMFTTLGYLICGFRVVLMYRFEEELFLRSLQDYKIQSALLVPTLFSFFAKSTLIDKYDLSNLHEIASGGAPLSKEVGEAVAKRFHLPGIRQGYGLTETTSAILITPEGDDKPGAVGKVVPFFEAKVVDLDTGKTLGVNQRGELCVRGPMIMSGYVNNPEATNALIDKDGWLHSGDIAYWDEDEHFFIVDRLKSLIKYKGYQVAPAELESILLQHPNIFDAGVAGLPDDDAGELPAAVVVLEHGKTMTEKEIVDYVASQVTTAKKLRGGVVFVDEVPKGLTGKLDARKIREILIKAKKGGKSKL
Sequence of UniProt P10635 (P10635 whole entry, looked up): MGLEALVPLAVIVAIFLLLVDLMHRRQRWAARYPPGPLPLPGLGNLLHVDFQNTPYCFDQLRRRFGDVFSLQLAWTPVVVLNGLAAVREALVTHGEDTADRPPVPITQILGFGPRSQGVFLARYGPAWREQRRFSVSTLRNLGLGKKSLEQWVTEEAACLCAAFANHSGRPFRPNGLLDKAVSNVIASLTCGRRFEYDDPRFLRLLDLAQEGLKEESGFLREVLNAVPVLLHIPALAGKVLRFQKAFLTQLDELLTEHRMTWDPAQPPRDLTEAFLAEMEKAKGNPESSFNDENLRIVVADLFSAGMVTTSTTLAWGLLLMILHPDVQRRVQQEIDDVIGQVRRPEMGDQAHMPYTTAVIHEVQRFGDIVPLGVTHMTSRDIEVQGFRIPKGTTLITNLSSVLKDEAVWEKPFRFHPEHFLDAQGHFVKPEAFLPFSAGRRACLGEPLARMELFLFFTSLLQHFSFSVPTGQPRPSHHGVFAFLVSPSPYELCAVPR
Sequence of UniProt P36969 (P36969 whole entry, looked up): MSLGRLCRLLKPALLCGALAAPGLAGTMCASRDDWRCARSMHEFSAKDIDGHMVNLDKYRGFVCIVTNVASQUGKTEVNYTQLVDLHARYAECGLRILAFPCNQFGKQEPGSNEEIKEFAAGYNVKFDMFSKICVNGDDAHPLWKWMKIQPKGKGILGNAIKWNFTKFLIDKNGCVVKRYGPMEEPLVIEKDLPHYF
Sequence of UniProt P11712 (P11712 whole entry, looked up): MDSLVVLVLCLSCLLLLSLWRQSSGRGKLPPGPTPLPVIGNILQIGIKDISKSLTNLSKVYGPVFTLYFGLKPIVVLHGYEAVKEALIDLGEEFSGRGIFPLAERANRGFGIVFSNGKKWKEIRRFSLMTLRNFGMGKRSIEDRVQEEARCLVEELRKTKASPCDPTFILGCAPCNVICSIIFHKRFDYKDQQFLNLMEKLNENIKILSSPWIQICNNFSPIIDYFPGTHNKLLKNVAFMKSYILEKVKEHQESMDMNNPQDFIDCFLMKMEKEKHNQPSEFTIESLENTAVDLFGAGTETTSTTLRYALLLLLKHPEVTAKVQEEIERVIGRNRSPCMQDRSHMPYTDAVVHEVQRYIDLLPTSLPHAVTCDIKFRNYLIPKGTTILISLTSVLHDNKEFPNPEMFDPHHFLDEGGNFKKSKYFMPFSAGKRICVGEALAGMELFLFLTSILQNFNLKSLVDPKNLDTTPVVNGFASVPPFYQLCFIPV

CC(=O)N[C@H](Cc1c[nH]c2ccccc12)C(=O)OCc1cc(C(F)(F)F)cc(C(F)(F)F)c1
inactive: outcome (HaCat) | Potency (Tov-21-G)
active: Potency [1] 19 µM | Potency [2] 1.9 µM

C[C@@H]1O[C@@H](O[C@H]2[C@H](O)[C@@H](O)[C@H](OC[C@H]3O[C@@H](OC(=O)[C@]45CCC(C)(C)C[C@H]4C4=CCC6[C@@]7(C)C[C@H](O)[C@H](O[C@@H]8O[C@H](CO)[C@@H](O)[C@H](O)[C@H]8O)[C@@](C)(C(=O)O)C7CC[C@@]6(C)[C@]4(C)CC5)[C@H](O[C@@H]4O[C@H](CO)[C@@H](O)[C@H](O)[C@H]4O)[C@@H](O)[C@@H]3O)O[C@@H]2CO)[C@H](O)[C@H](O)[C@H]1O (stereo not given in full)
inconclusive: Potency [5] 4 µM [activator, partial curve, poor fit]
inactive: outcome [3] inactive [at 9.29 µM] | activity change, negative = viability loss [4] -12.2% [at 9.23 µM] | outcome (HEK293T) | activity change, negative = cytotoxicity (CAOV3) 11.2% [at 6.55 µM] | activity change, negative = cytotoxicity (CASKI) 9.67% [at 6.55 µM] | activity change, negative = cytotoxicity (SKOV3) 8.21% [at 6.55 µM]

COC(=O)C1=CO[C@@H](O[C@@H]2O[C@H](CO)[C@@H](O)[C@H](O)[C@H]2O)C2C1CC(O)C2C (stereo not given in full)
inactive: Potency [4] | Potency [6] | outcome (HaCat)

COc1ccc2c3c1O[C@H]1C[C@@H](O)C=C[C@@]31CCN(C)C2
inconclusive: Potency [9] 21.2 µM [inhibitor, partial curve]
inactive: Potency [7] | Potency [8] | outcome (HaCat) | Potency (AS120) | Potency (ATS189) | Potency (CP194) | Potency (CP203) | Potency (CP252) | Potency (CP305) | Potency (CP329)
